The supplement of paper PMC8728848
This is one part of the list.

Assays:
Assay in all cases: glycan array binding signal (z-score within array); higher = stronger binding
Settings in all cases: glycan notation: IUPAC condensed, linker removed; mutation: E41A
[1] = target: Gal(b1-4)GalNAc(b1-3)[Fuc(a1-2)]Gal(b1-4)GlcNAc
Method in brief: (§1)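 Arrays were curated from the Consortium for Functional Glycomics database, 3228 in total, and kept only where the protein sequence was available. Binding is expressed as a within-array Z-score. This score was averaged across arrays of the same protein sequence at different concentrations or buffers and across linkers, and negative values can be read as non-binding.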

Gal(b1-4)Glc = target: Gal(b1-4)Glc
Method in brief: as §1

Gal(b1-4)Glc6S = target: Gal(b1-4)Glc6S
Method in brief: as §1

Gal(b1-4)GlcNAc = target: Gal(b1-4)GlcNAc
Method in brief: as §1

[2] = target: Gal(b1-4)GlcNAc(a1-6)Gal(b1-4)GlcNAc
Method in brief: as §1

Gal(b1-4)GlcNAc(b1-2)Man = target: Gal(b1-4)GlcNAc(b1-2)Man
Method in brief: as §1

[3] = target: Gal(b1-4)GlcNAc(b1-2)Man(a1-3)Man(b1-4)GlcNAc(b1-4)GlcNAc
Method in brief: as §1

[4] = target: Gal(b1-4)GlcNAc(b1-2)Man(a1-3)[Gal(b1-4)GlcNAc(b1-2)Man(a1-6)]Man(b1-4)GlcNAc(b1-4)GlcNAc
Method in brief: as §1

[5] = target: Gal(b1-4)GlcNAc(b1-2)Man(a1-3)[Gal(b1-4)GlcNAc(b1-2)Man(a1-6)]Man(b1-4)GlcNAc(b1-4)[Fuc(a1-6)]GlcNAc
Method in brief: as §1

[6] = target: Gal(b1-4)GlcNAc(b1-2)Man(a1-3)[Gal(b1-4)GlcNAc(b1-2)Man(a1-6)][Gal(b1-4)GlcNAc(b1-4)]Man(b1-4)GlcNAc(b1-4)[Fuc(a1-6)]GlcNAc
Method in brief: as §1

[7] = target: Gal(b1-4)GlcNAc(b1-2)Man(a1-3)[Gal(b1-4)GlcNAc(b1-2)Man(a1-6)][GlcNAc(b1-4)]Man(b1-4)GlcNAc(b1-4)[Fuc(a1-6)]GlcNAc
Method in brief: as §1

[8] = target: Gal(b1-4)GlcNAc(b1-2)Man(a1-3)[GlcNAc(b1-2)Man(a1-6)]Man(b1-4)GlcNAc(b1-4)GlcNAc
Method in brief: as §1

[9] = target: Gal(b1-4)GlcNAc(b1-2)Man(a1-3)[GlcNAc(b1-4)][Gal(b1-4)GlcNAc(b1-2)Man(a1-6)]Man(b1-4)GlcNAc(b1-4)GlcNAc
Method in brief: as §1

[10] = target: Gal(b1-4)GlcNAc(b1-2)Man(a1-3)[Man(a1-6)]Man(b1-4)GlcNAc(b1-4)GlcNAc
Method in brief: as §1

[11] = target: Gal(b1-4)GlcNAc(b1-2)Man(a1-6)Man(b1-4)GlcNAc(b1-4)GlcNAc
Method in brief: as §1

[12] = target: Gal(b1-4)GlcNAc(b1-2)Man(a1-6)[GlcNAc(b1-2)Man(a1-3)]Man(b1-4)GlcNAc(b1-4)GlcNAc
Method in brief: as §1

[13] = target: Gal(b1-4)GlcNAc(b1-2)Man(a1-6)[Man(a1-3)]Man(b1-4)GlcNAc(b1-4)GlcNAc
Method in brief: as §1

[14] = target: Gal(b1-4)GlcNAc(b1-2)[Gal(b1-4)GlcNAc(b1-4)]Man(a1-3)[Gal(b1-4)GlcNAc(b1-2)Man(a1-6)]Man(b1-4)GlcNAc(b1-4)GlcNAc
Method in brief: as §1

[15] = target: Gal(b1-4)GlcNAc(b1-2)[Gal(b1-4)GlcNAc(b1-4)]Man(a1-3)[Gal(b1-4)GlcNAc(b1-2)[Gal(b1-4)GlcNAc(b1-6)]Man(a1-6)]Man(b1-4)GlcNAc(b1-4)GlcNAc
Method in brief: as §1

[16] = target: Gal(b1-4)GlcNAc(b1-2)[Gal(b1-4)GlcNAc(b1-4)]Man(a1-3)[GlcNAc(b1-4)][Gal(b1-4)GlcNAc(b1-2)Man(a1-6)]Man(b1-4)GlcNAc(b1-4)GlcNAc
Method in brief: as §1

[17] = target: Gal(b1-4)GlcNAc(b1-2)[Gal(b1-4)GlcNAc(b1-4)]Man(a1-3)[GlcNAc(b1-4)][Gal(b1-4)GlcNAc(b1-2)[Gal(b1-4)GlcNAc(b1-6)]Man(a1-6)]Man(b1-4)GlcNAc(b1-4)GlcNAc
Method in brief: as §1

[18] = target: Gal(b1-4)GlcNAc(b1-2)[Gal(b1-4)GlcNAc(b1-6)]Man(a1-6)[Gal(b1-4)GlcNAc(b1-2)Man(a1-3)]Man(b1-4)GlcNAc(b1-4)GlcNAc
Method in brief: as §1

B1: CVN-E41G (protein)
chain: MHHHHHHENLYFQSGNFSQACYNSAIQGSVLTSTCIRTNGGYNTSSIDLNSVIANVDGSLKWQGSNFIETCRNTQLAGSSELAAECKTRAQQFVSTKINLDDHIAAIDGTLKYE
glycan array binding signal (z-score) [1]: -0.244 | glycan array binding signal (z-score) (Gal(b1-4)Glc): -0.205 | glycan array binding signal (z-score) (Gal(b1-4)Glc6S): -0.203 | glycan array binding signal (z-score) (Gal(b1-4)GlcNAc): -0.222 | glycan array binding signal (z-score) [2]: -0.245 | glycan array binding signal (z-score) (Gal(b1-4)GlcNAc(b1-2)Man): 0.734 | glycan array binding signal (z-score) [3]: -0.21 | glycan array binding signal (z-score) [4]: -0.227 | glycan array binding signal (z-score) [5]: -0.188 | glycan array binding signal (z-score) [6]: -0.212 | glycan array binding signal (z-score) [7]: -0.201 | glycan array binding signal (z-score) [8]: -0.221 | glycan array binding signal (z-score) [9]: -0.238 | glycan array binding signal (z-score) [10]: -0.043 | glycan array binding signal (z-score) [11]: -0.214 | glycan array binding signal (z-score) [12]: -0.156 | glycan array binding signal (z-score) [13]: -0.226 | glycan array binding signal (z-score) [14]: -0.153 | glycan array binding signal (z-score) [15]: 1.3 | glycan array binding signal (z-score) [16]: -0.208 | glycan array binding signal (z-score) [17]: -0.2 | glycan array binding signal (z-score) [18]: -0.064
